According to PMC7819943, “Rice protein-binding microarrays: a tool to detect cis-acting elements near promoter regions in rice”:
Some of the results follow.

These sequences were tested against T1, OsWOX13 (Oryza sativa, UniProt Q5QMM3 1-267) (assay: protein-binding microarray (RPBM); PBS, 2% BSA, 51.3 ng/ul salmon testes DNA, 50 uM zinc acetate, 200 nM TF, 25 C, 1 h; high values mean tight binding). Details: protein: recombinant; tags: N-terminal polyhistidine and DsRed monomer fusion (pET32a); label: CyDye5-dUTP incorporated in the synthesized complementary strand; 3' TTTTT single-stranded linker to array surface; dsDNA, one strand shown.
T1 sequence: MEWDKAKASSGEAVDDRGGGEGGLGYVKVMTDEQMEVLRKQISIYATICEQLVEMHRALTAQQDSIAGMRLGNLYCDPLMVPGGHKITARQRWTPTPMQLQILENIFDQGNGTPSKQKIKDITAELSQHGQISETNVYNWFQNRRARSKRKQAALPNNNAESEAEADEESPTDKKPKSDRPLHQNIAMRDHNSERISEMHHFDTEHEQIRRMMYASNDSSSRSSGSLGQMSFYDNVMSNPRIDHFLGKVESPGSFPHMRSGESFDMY
Outline: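 Transcription factors were each fused at the N-terminus to a polyhistidine tag plus DsRed and expressed in E. coli BL21-CodonPlus before Ni–NTA purification. Binding to a double-stranded custom Agilent array was carried out with 200 nM protein at 25 °C for 1 h in PBS, 2% BSA, salmon testes DNA and 50 µM zinc acetate. The binding signal is per-feature fluorescence intensity, in arbitrary units, on an Axon 4000B scanner.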

| Sequence | binding signal |
| --- | --- |
| CTTGATGAAACCTTAGGACGTTTTCTTGGGTTCTTGGGAACGGAGTCACCTAGTGCAG | 3200 fluorescence intensity (a.u.) |
| CAGCAAACTGATAGTTTTGTCACTAAAATTGCTGTTTTCTCGGAGTCACCTAGTGCAG | 8340 fluorescence intensity (a.u.) |
| CGTTGACTGCTAATCCAACTTTGCTCTCTTTTCGTTTAGGCGGAGTCACCTAGTGCAG | 49000 fluorescence intensity (a.u.) |
| TCAATGATTATATTTTCATAATATATTTGTCTTGGGTTGACGGAGTCACCTAGTGCAG | 25600 fluorescence intensity (a.u.) |
| ATGATTAAATTTGGGAAATACTCTTCTTCGTTATGGTCCTCGGAGTCACCTAGTGCAG | 44200 fluorescence intensity (a.u.) |
| ATTTGATATAATCCCGTACTAATTGGATTGTATCAAATACCGGAGTCACCTAGTGCAG | 22700 fluorescence intensity (a.u.) |
| TTAATTGATTAATTTCCTTAACCAAATCTTGGCGACTTGACGGAGTCACCTAGTGCAG | 61200 fluorescence intensity (a.u.) |
| ACTAAATTTGGACTCCCTCCAAATTCGACTCCGCATTCCACGGAGTCACCTAGTGCAG | 4910 fluorescence intensity (a.u.) |
| GGTTAAAATCAAAATAATTATAATATAAAATGAAAGGCGTCGGAGTCACCTAGTGCAG | 7490 fluorescence intensity (a.u.) |
| CAGTAATCAGCCGCTAATCGTGGATTAATATACATCATTACGGAGTCACCTAGTGCAG | 10300 fluorescence intensity (a.u.) |
| GCTTAATGGGCCCCACCGTGCTATCTCGCTGATTCGGCCCCGGAGTCACCTAGTGCAG | 3940 fluorescence intensity (a.u.) |
| ACATGACATGAAAATTTCAGAGTTGCAAGCTAACACGAACCGGAGTCACCTAGTGCAG | 3980 fluorescence intensity (a.u.) |
| TTTTGATCACACCATGATTGATGCACAAATCCATATGAACCGGAGTCACCTAGTGCAG | 36800 fluorescence intensity (a.u.) |
| GGTAGAGGCAGGTAATTGGGAGGGAATTACTCATTTATTTCGGAGTCACCTAGTGCAG | 5610 fluorescence intensity (a.u.) |
| TTTAATTGCCCACTAGCAAGGATTTGAACTCGAGGCGTCTCGGAGTCACCTAGTGCAG | 11300 fluorescence intensity (a.u.) |
| ATTAATAGATACAATTGCCTTCTTAGGACTCTATCCATGTCGGAGTCACCTAGTGCAG | 20900 fluorescence intensity (a.u.) |
| GCATAACTAATTGTTGTTGCACATATTTTCTTTATAAAGCCGGAGTCACCTAGTGCAG | 15500 fluorescence intensity (a.u.) |
| TTTGATTTCAACAGATTTATAATGGCATTCTTCCAATTAGCGGAGTCACCTAGTGCAG | 19500 fluorescence intensity (a.u.) |
| ACATAATTTATATCAAGTTTGCAATTGATTCCCTTTGGATCGGAGTCACCTAGTGCAG | 30900 fluorescence intensity (a.u.) |
| ATTGATAGATGCTACATCTAGCCAAACTTCTTCCTTTACCCGGAGTCACCTAGTGCAG | 22800 fluorescence intensity (a.u.) |
| ACGGTAATTTAGCAGTACACCGATTGTCTGGATTAAGTTACGGAGTCACCTAGTGCAG | 9990 fluorescence intensity (a.u.) |

| Sequence | binding signal |
| --- | --- |
| TATAATTGCTACGTAAGCGCCACGTCAATGCCATGTCAGACGGAGTCACCTAGTGCAG | 17200 fluorescence intensity (a.u.) |
| TATCATGGGATAGATGCTAATCACGTTGAAGTGACTAGATCGGAGTCACCTAGTGCAG | 9750 fluorescence intensity (a.u.) |
| TTATATGATATGATAATCAGTATGGAACGGAGCGAGTAGTCGGAGTCACCTAGTGCAG | 3990 fluorescence intensity (a.u.) |
| TGTGGACAATGATTAGCACAAACTTATCCTCCGTAATTTGCGGAGTCACCTAGTGCAG | 17100 fluorescence intensity (a.u.) |
| AAAATAGTTAATACTCAATTAATTATGAGTTAATGGCTTACGGAGTCACCTAGTGCAG | 15300 fluorescence intensity (a.u.) |
| ACTCCACCACTGTTAATTATTTCTAAAATGGACAAGAAAACGGAGTCACCTAGTGCAG | 3960 fluorescence intensity (a.u.) |
| TATAATTGATGTACATCGATGATTAATTCTCTAACAGATCCGGAGTCACCTAGTGCAG | 62300 fluorescence intensity (a.u.) |
| GTGTTAATTTGGCAGCGTGTGCTGTTCACTTGTACATTACCGGAGTCACCTAGTGCAG | 11100 fluorescence intensity (a.u.) |
| CTAGATTGATTTCTGCCAAACCGACGAAATTCATTTGTACCGGAGTCACCTAGTGCAG | 46200 fluorescence intensity (a.u.) |
| AAGTTAAACCAAACCCAATCAATCGGTTTAACTCAAAATCCGGAGTCACCTAGTGCAG | 5520 fluorescence intensity (a.u.) |
| ACAAACATCAAGTCAGCTAAATTAGCACGCACAAATCCAACGGAGTCACCTAGTGCAG | 6380 fluorescence intensity (a.u.) |
| CCTAATTGCGTCATGATTTGACAATGTAGTGCTACAGTAACGGAGTCACCTAGTGCAG | 50800 fluorescence intensity (a.u.) |
| TAGTAGATTGATTTCCTTAACCGAATATAGCAGGAATCCGCGGAGTCACCTAGTGCAG | 52900 fluorescence intensity (a.u.) |
| TTGCTAAATGATATCAATTAAACGGTGTATCAATTCCATACGGAGTCACCTAGTGCAG | 21400 fluorescence intensity (a.u.) |
| GTAGATGGATAGCTATTTCGATTTTATTTACCGATCTTCTCGGAGTCACCTAGTGCAG | 3640 fluorescence intensity (a.u.) |
| GCCTATATCAATGCCACATTAATTGCCAGTTTGCCACGGTCGGAGTCACCTAGTGCAG | 18400 fluorescence intensity (a.u.) |
| GTAAATAGATAATACTGACTTTTGATGCAATCCAGGTGAGCGGAGTCACCTAGTGCAG | 19400 fluorescence intensity (a.u.) |
| CATGACTAAATTTAGAGTAAATCCCTTGTATACCCATGAACGGAGTCACCTAGTGCAG | 27100 fluorescence intensity (a.u.) |
| TAGTGACAAATCACAAAGCAAATTAAAATGGTGGGTACATCGGAGTCACCTAGTGCAG | 4940 fluorescence intensity (a.u.) |
| AGTATATTAATTAAAGACTTAACATGAAAGCTTGCATGTTCGGAGTCACCTAGTGCAG | 24300 fluorescence intensity (a.u.) |
| TTTGATTCTTTTAAATTAAATAATTTTAAAGTCATTGATACGGAGTCACCTAGTGCAG | 21100 fluorescence intensity (a.u.) |
